# Assay results taken from ChEMBL document CHEMBL4888484, “Replenishing the malaria drug discovery pipeline: Screening and hit evaluation of the MMV Hit Generation Library 1 (HGL1) against asexual blood stage Plasmodium falciparum ,using a nano luciferase reporter read-out” (2022).
# The campaign covered roughly 150,000 compounds. About 540 (0.36%) showed an effect of 50% or more. This is one part of the list.
# Tested on: Plasmodium falciparum
# Experiment: Primary screen in NF54 nanoGlo assay, in single point, at 2uM, 72h; a lower Z score goes with more inhibition
# Assay type: functional, Erythrocyte
# Conditions: timepoint 72 hour
Compound,% Inhibition,Z score
CC1CC(C(=O)N2CCN(Cc3ccc(-c4ccccc4F)s3)CC2)CCO1 (stereo not given),-16%,1.39
Cc1csc([C@H](C)NC(=O)c2cc3ncc(CCO)cn3n2)n1,-3%,0.42
O=C1CN(C(=O)c2cc3c(s2)CCCCC3)CCN1,-9%,1.38
O=C(CS(=O)(=O)c1nnnn1C1CCCCC1)Nc1ccc(F)cc1,1%,-0.11
Cn1nc(-c2nccn2CCCn2ccnc2)c2c(Cl)cccc21,-13%,1.25
O=C(CCc1cscn1)NCC1CC12CCc1ccccc12 (stereo not given),-17%,1.85
C[C@]1(O)CCN(C(=O)c2cc(C3CC3)no2)C[C@H]1Cc1ccccc1,8%,-1.05
CCn1cc(C(=O)C(=O)N(C)[C@H](c2ccccc2)C(F)(F)F)cn1,-4%,0.47
CCc1cnc(C)nc1N1CCC(NCc2cc(COC)[nH]n2)CC1,-6%,1.12
CN1CCn2ccnc2C12CCN(S(=O)(=O)c1cc(F)ccc1F)CC2,-3%,0.35
O=C(NCCc1ccon1)c1cc(Br)cnc1C1CC1,1%,-0.08
Cc1cc(Cn2ccc(-c3cccc(-c4c(C)n(C)c(=O)n(C)c4=O)c3)n2)no1,-3%,0.49
Cc1nc(CN(C)c2ncncc2C(=O)O)cs1,0%,0.04
CCOC(=O)c1cc(NC(=O)c2ccc3[nH]cnc3c2)cn1C,31%,-3.48
O=C(c1ccc[nH]1)N1C[C@H]2CC[C@@H](C1)N(Cc1ccccc1)C2=O,-16%,3.04
CN(C)C(=O)N1C[C@H]2CC[C@@H](C1)N(C(=O)c1nc3ccc(F)cc3[nH]1)C2,-9%,1.1
O=C(O)c1ccc(NCC[C@H]2CCCO2)cc1,-4%,0.55
CCCN(Cc1nc(C)c(Cc2cccc(C)c2)c(=O)[nH]1)C(=O)NC(C)(C)C,-1%,0.17
CN(C)C(=O)N1CCC(c2nc(CC(N)=O)nn2-c2ccncc2)CC1,-9%,1.19
CCc1nc(C)nc(N2CCN(C(=O)[C@H]3CCOC3)CC2)c1Cc1ccc(C)cc1,-1%,0.15
c1ccc2c(c1)CCN(c1ncnc3c1CCNCC3)C2,-5%,0.82
Cc1c(C(=O)N2CC[C@H](N(C)C)C2)sc2ncnc(NCc3ccc4c(c3)OCO4)c12,-4%,0.54

Compound,% Inhibition,Z score
COCCC1(C(=O)Nc2ccc(O[C@H]3CCOC3)cc2)CCC1,-7%,1.14
CC(C)CS(=O)(=O)CCNC(=O)Nc1cncc(F)c1,0%,-0.04
O=C(Cc1ccccc1F)NC1(C(=O)O)CCC1,1%,-0.29
O=C(N1CC[C@H](CO)C1)N(c1ccccc1)c1ccccc1,-9%,0.86
CCCc1nc(C)cc(N2CCC(C[C@H]3CCCCO3)(C(=O)O)CC2)n1,-17%,2.94
Cc1cccc(OCCN2CCc3c(ncn3C)C2)c1,-27%,5.15
Cc1nn(C)cc1S(=O)(=O)N[C@@H](C)c1ncnn1C,-19%,3.29
c1ccc(-n2nc(C3CC3)nc2Cc2n[nH]c3ccccc23)nc1,3%,-0.58
CC(C)[C@H]1c2ccccc2CCN1C(=O)c1cnc[nH]1,-3%,0.26
Cc1nc2ccc(NC(=O)c3ccsc3)cc2s1,-10%,0.98
CN(C)c1cccc(C(=O)N2CCC3(CCC(=O)N(C4CCCC4)C3)CC2)c1,-10%,0.91
CCO[C@@H](C)c1nccn1Cc1nnc2n1CCCCC2,-10%,1.7
O=C(c1nnn2c1CO[C@H](c1ccccc1)C2)N1CCCC1,-16%,1.84
COc1ccc(-c2noc(N3CCN(c4cccc(C(F)(F)F)c4)CC3)n2)cc1OC,1%,-0.22
C[C@@H](CC(=O)N1CCCCCC1)Nc1cccc(-c2ncco2)c1,-22%,3.18
COc1ccccc1[C@@H](O)CNc1cncc(Br)c1,-10%,1.1
CC(C)C[C@@H]1NC2(CCN(S(=O)(=O)c3cccc(Cl)c3)CC2)N(Cc2cccc(C(F)(F)F)c2)C1=O,-10%,1.72
O=C(Nc1cccc2cccnc12)c1sc2ccccc2c1Cl,0%,0.05
Cc1nc2c(s1)[C@@H](N(C)CC(=O)Nc1nncs1)CCC2,5%,-0.67
Cc1c(-c2cc(C(=O)N3CC[C@H]3c3ccc(F)cc3)n[nH]2)cnn1C,-4%,0.53
O=C(O)Cc1cccc(NC(=O)CC2(c3ccccc3)CC2)c1,-2%,0.16
COc1cccc(CNc2nnc([C@@H]3CCCO3)o2)n1,-8%,1.04

Compound,% Inhibition,Z score
Cc1nc([C@@H]2CCCN2c2ccnc(Cc3ccccc3)n2)[nH]c1C,-5%,0.8
Cc1ccc(N2CCCC2)c(C(=O)N2CCOC[C@@H](C)C2)c1,-3%,0.5
CC(C)NC(=O)CNc1ccncc1Br,-7%,0.96
Cc1occc1-c1nnc(NCc2cccn2C)o1,-2%,0.22
Cc1ccc(-c2nn(CC(=O)N(C)Cn3ccc(C)n3)c(-c3ccc(C)cc3)c2C)cc1,28%,-3.16
N#Cc1c(N)c(C(=O)NCc2ccccc2)c2n1CCC2,-4%,0.69
COCCCN(Cc1csc(COc2cccc(C)c2)n1)C(=O)C1CCCC1,-9%,0.96
O=C(c1cnco1)N1CCn2nc([C@H](O)c3ccccc3)cc2C1,1%,-0.24
Cc1ccc(NC2(c3nnnn3C(c3ccccc3)c3ccccc3)CCCCC2)cc1,25%,-3.89
CCCC[C@H](C)C(=O)NCc1cnc(COC)nc1N,-4%,0.5
Cc1ccc(CN(CCN(C)C)C(=O)c2cnon2)s1,-6%,1.17
Cc1ccc(C(=O)C2CN(c3ccccc3)CC2C(=O)c2ccc(C)cc2)cc1 (stereo not given),1%,-0.11
Cc1cccc(N2CCN(C(=O)CN(C)c3nnc(N4CCCCC4=O)s3)CC2)c1C,-12%,2.21
Cc1cccc(-c2ccc3nc(-c4ccc(Cl)cc4)c(CN4CCN(C(=O)c5cccs5)CC4)n3c2)c1,-14%,2
C[C@@H](c1cncs1)N(C)C(=O)c1cn2c(n1)CNCC2,-6%,0.99
Nc1cc(S(=O)(=O)N2CCCCC2)ccc1N1CCCCCC1,-15%,1.7
Cc1cccc(OC[C@]2(CNC(=O)c3cc(C)nn3C)C[C@@H](O)[C@@H](O)C2)n1,28%,-3.24
CC(NC(=O)C1CC1C)c1ccccn1 (stereo not given),0%,0.08
Cc1cc(N(C)C)nc(NCCNC(=O)Nc2cccc(C)c2C)n1,-2%,0.29
CN(CC(=O)NC(C)(C)C)C[C@H](O)c1ccc(Br)cc1,3%,-0.24
Cc1ncc2c(n1)CC[C@H](NCc1csc(C(F)(F)F)n1)C2,1%,-0.1
O=C(Cn1ccc2ccc(N3CCOCC3)nc21)NCc1ccccc1Br,-2%,0.27

Compound,% Inhibition,Z score
CCC(C)C(C)NC(=O)C1COCCN1 (stereo not given),-7%,1
CC1CCCC(OCc2cccc(NC(=O)C(=O)Nc3cnn(C)c3)c2)C1 (stereo not given),-2%,0.25
O=C1CC[C@H](NCCC2=CCCCC2)CCN1CC1CC1,7%,-1.09
CCN(C)c1nc(N2CCOCC2)nc2c1CNCC2,-5%,0.5
Cc1c(NC2CCN(C(C)C)CC2)cccc1N1C(=O)CCC1=O,-6%,0.77
CCOC(=O)c1nn(-c2ccccc2)cc1CN1CCN(C(=O)c2ccccc2)CC1,-10%,1.25
O=C(CCc1ccc(S(=O)(=O)N2CCCC2)cc1)Nc1ccc(F)c(F)c1F,-1%,0.15
O=C(Nc1c(F)cccc1F)N1CCC(Cn2c(COc3ccccc3)nc3ccccc32)CC1,17%,-1.95
O=C(NCc1ccc(F)cc1)Nc1ccc2nncn2c1,-9%,1.78
CCc1ccc(CN(CC)Cc2noc(C)n2)nc1,5%,-0.86
c1ccc(-c2cc(CC3(NCc4ccco4)COC3)no2)nc1,0%,-0.02
COc1cc(C(=O)N2C[C@@H]3CC[C@H]2CN(Cc2[nH]cnc2C)C3)ccn1,-14%,2.26
COc1ccc(-c2nn(-c3ccccc3C)c3c2C(C)=CC(=O)[C@H]3CC(=O)NC2CCCC2)cc1,1%,-0.15
CN(C(=O)Cn1ncn(C)c1=O)c1ccccc1-c1ccccc1,-7%,1.11
c1ccc2sc([C@@H]3CCCN3c3nccn4cnnc34)nc2c1,-13%,1.72
O=C(NCc1ccc(F)cc1)c1cc2n(n1)CCN(CC1CC1)C2=O,-1%,0.07
O=C(c1cccc(F)c1)N1CCC[C@H](OCc2cccc(F)c2F)C1,3%,-0.52
O=C(NC[C@H]1O[C@@H]2C[C@@H](CC(=O)N3CCC(F)(F)C3)O[C@@H]2[C@@H]1O)Nc1cccnc1,-9%,1.39
OCCN[C@@H](CC(F)(F)F)c1ccc(Cl)cc1,-9%,1.16
